According to a collection of fitness landscapes (doi:10.1016/j.celrep.2020.107928):
Over roughly 81,000 sequences, “one-hybrid fitness for binding NBS DNA” has its median near -0.1; the highest 2% begin near 0.36. Some of the results follow.

B1: Caulobacter ParB omega fusion; a variant is named by its letters at X, in order, B8GW30 (parent)
chain: MESVVVGEPGMSEGRRGLGRGLSALLGEVDAAPAQAPGEQLGGSREAPIEILQRNPDQPRRTFREEDLEDLSNSIREKGVLQPILVRPSPDTAGEYQIVAGERAWRAAQRAGLKTVPIMVRELDDLAVLEIGIIENVQRADLNVLEEALSYKVLMEKFERTQENIAQTIGKSXSHVANXMRLLXLPDEVQSYLVSGELTAXHARAIAAAADPVALAKQIIEGGLSVRETEALARKAPNLSAGKSKGGRPPRVKDTDTQALESDLSSVLGLDVSIDHRGSTGTLTITYATLEQLDDLCNRLTRGI

Variants of: B1
Test: one-hybrid fitness for binding NBS DNA (the Noc-binding site; scaled: cognate 1, non-cognate 0); higher = stronger binding
Details: with NBS DNA site
How it was run: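 Pre- and post-selection plasmids were Illumina-sequenced, three replicate libraries were pooled, and any variant with under 10 reads was removed. The libraries were Caulobacter ParB with four specificity codons randomised, selected in E. coli USO through a HIS3 reporter whose site is 19 bp from the promoter. Cells grew 48 hours at 37°C on M9 without histidine, with 0.1 mM IPTG and 5 mM 3-AT. Fitness is the log change in variant-to-wild-type read ratio, rescaled against cognate and non-cognate.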

one-hybrid fitness for binding NBS DNA, 0.229:
QRQE

one-hybrid fitness for binding NBS DNA, 0.681:
RRHS

one-hybrid fitness for binding NBS DNA, 0.557:
QMSR

one-hybrid fitness for binding NBS DNA, 0.624:
RKHS

one-hybrid fitness for binding NBS DNA, 0.343:
QRCG

one-hybrid fitness for binding NBS DNA, 0.383:
QYLT

one-hybrid fitness for binding NBS DNA, ≤ 0.2:
SCPL
RINL
CQYS
LYYF
MNIT
MLYL
KKLC
RQHV
QSQY
KSDD
AHLV
LSSA
NCFT
IHES
TDCR
PPQP
QISA
IVEN
IDPI
NFPC
HNMF
AVCR
THVL
TNEH
RNLS
DIML
QAGQ
KFIG
KRLV
CTIR
LDKI
SYQE
VPLP
TEPA
AFTM
SNKD
KTRG
IETT
FVLC
SHAR
DVHS
PNRS
DNAI
YADL
QPCG
TVTH
QPYC
IHAA
NISC
TSHI
RVEV
PWLR
SLHM
AAFS
QKWV
SSGT
QFIR
LHTS
SASP
EFTQ
KRPA
YGKS
QQIC
LPTS
QKNV
GLKT
NSAF
SEER
HPML
SYIG
PEIW
MQSS
PEYC
AYPL
SSMT
YCGR
IVDS
FSVG
DKLG
AMWF
AGQS
QDPK
AETA
CWAM
HTMY
HPCR
NMAN
KWKV
QGIL
AQTC
HAFP
SRQD
KRIL
YRYY
DFRT
LIEL
NDPR
VSDT
ASTC
YYDN
TTFY
HELA
RDLE
QKDA
RSDT
RWPF
VATP
KLTV
SSES
DKFY
PLVT
CPMS
ALKY
WNDC
KLNG
WAVG
HIPC
RFCD
NVTD
RLFL
IRWV
LTLH
GFSA
MSEC
REEG
EYVG
YQKV
DQKG
ALSP
RPFS
RRSE
LSLF
LTNK
SIGP
ARYI
DDTM
AWPC
RVAP
PKHM
HRVR
QTDV
PSSF
VMEV
ATWS
VRRG
ARLL
PVYV
GLHW
RKED
GDES
SKPG
TPKM
MQYG
QNTK
HHDC
YKPM
ILHT
IWVR
MHLR
PREI
INRL
RHAA
LSFL
YNNM
GMTG
SLWL
NSPA
YTQR
EAGS
QDSA
PLNI
VPMC
MAIY
PKLT
CLPK
PPNK
TQQG
ALDA
MYYR
HEKN
VLDT
HQCK
NIAG
GVST
NSGP
YVTS
APGH
SVSL
MKTD
